Test results: the supplement of paper PMC10369915
The other results are listed elsewhere or left out. Cut-off read from the data, not from the text of the source: active = 3.2 or more and inactive = the rest. The signal is at background level for most entries.

B1: HBB_Y131_A130V (peptide)
chain: PVQAVYQKVVA
B2: HBB_Y146_K145E (peptide)
chain: ALAHEYHGGGG
B3: HBB_Y131_Q128K (peptide)
chain: PVKAAYQKVVA
B4: HBA1_Y43_D48Y_YF (peptide)
chain: PTTKTYFPHFF
B5: HBB_Y146_L142R (peptide)
chain: ARAHKYHGGGG
B6: HBA1_Y25_G23D (peptide)
chain: AHADEYGAEAL
B7: HBA1_Y43_P45L (peptide)
chain: PTTKTYFLHFD
B8: HBB_Y36_P37R (peptide)
chain: RLLVVYRWTQR
B9: HBB_Y146_H144Q (peptide)
chain: ALAQKYHGGGG
B10: HBD_Y36_P37H (peptide)
chain: RLLVVYHWTQR
B11: HBB_Y146_H147P (peptide)
chain: ALAHKYPGGGG
B12: HBA1_Y25_A20E (peptide)
chain: EHAGEYGAEAL
B13: HBA1_Y43 (peptide)
chain: PTTKTYFPHFD
B14: HBB_Y146_A143D (peptide)
chain: ALDHKYHGGGG
B15: HBG2_Y36_R41G (peptide)
chain: RLLVVYPWTQG
B16: HBB_Y131_A136P (peptide)
chain: PVQAAYQKVVP
B17: HBG2_Y36_T39P (peptide)
chain: RLLVVYPWPQR
B18: HBB_Y36_Q40R (peptide)
chain: RLLVVYPWTRR
B19: HBG1_Y36_R41K (peptide)
chain: RLLVVYPWTQK
B20: HBB_Y146_H147L (peptide)
chain: ALAHKYLGGGG
B21: HBD_Y146_H147R (peptide)
chain: ALAHKYRGGGG
B22: HBB_Y36_V35D (peptide)
chain: RLLVDYPWTQR
B23: HBB_Y146_A141T (peptide)
chain: TLAHKYHGGGG
B24: HBB_Y131_V127E (peptide)
chain: PEQAAYQKVVA
B25: HBD_Y131_Q126E (peptide)
chain: EMQAAYQKVVA
B26: HBB_Y131_K133Q (peptide)
chain: PVQAAYQQVVA
B27: HBB_Y131_Q132E (peptide)
chain: PVQAAYEKVVA
B28: HBB_Y36_W38G (peptide)
chain: RLLVVYPGTQR
B29: HBB_Y36_L33V (peptide)
chain: RLVVVYPWTQR
B30: HBB_Y146_H144D (peptide)
chain: ALADKYHGGGG
B31: HBA1_Y43_D48A (peptide)
chain: PTTKTYFPHFA
B32: HBD_Y131 (peptide)
chain: QMQAAYQKVVA
B33: HBB_Y36_V35L (peptide)
chain: RLLVLYPWTQR
B34: HBB_Y131_K133N (peptide)
chain: PVQAAYQNVVA
B35: HBA1_Y43_H46R (peptide)
chain: PTTKTYFPRFD
B36: HBB_Y131_V135E (peptide)
chain: PVQAAYQKVEA
B37: HBA1_Y43_D48G (peptide)
chain: PTTKTYFPHFG

Columns and labels:
Assay in all cases: enrichment score (SH2-bound / input frequency) (ratio); bacterial display of known human phosphotyrosine sites (pTyr-Var adds point mutants) read by sequencing; higher = stronger binding; tyrosines were phosphorylated by kinases first
Details in all cases: peptide library: pTyr-Var
SHP2 C-SH2 domain E139D = molecular target: SHP2 C-SH2 domain E139D
[1] = molecular target: SHP2 C-SH2 domain wild-type
SHP2 N-SH2 domain L43F = molecular target: SHP2 N-SH2 domain L43F
SHP2 N-SH2 domain T42A = molecular target: SHP2 N-SH2 domain T42A
SHP2 N-SH2 domain T52S = molecular target: SHP2 N-SH2 domain T52S
[2] = molecular target: SHP2 N-SH2 domain wild-type
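Note: displayed peptides selected on beads carrying the immobilized SH2 domain, with library peptides lacking any tyrosine serving as negative controls.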

Binder | enrichment score (SHP2 C-SH2 domain E139D) | enrichment score [1] | enrichment score (SHP2 N-SH2 domain L43F) | enrichment score (SHP2 N-SH2 domain T42A) | enrichment score (SHP2 N-SH2 domain T52S) | enrichment score [2]
B1 | inactive: 0.919 | inactive: 0.951 | inactive: 0.891 | inactive: 1.17 | inactive: 0.721 | inactive: 0.807
B2 | inactive: 0.973 | inactive: 0.98 | inactive: 1.01 | inactive: 1.04 | inactive: 0.861 | inactive: 1.24
B3 | inactive: 0.939 | inactive: 0.906 | inactive: 1.04 | inactive: 0.869 | inactive: 1.03 | inactive: 1.01
B4 | inactive: 1.28 | inactive: 0.818 | inactive: 1.33 | inactive: 1.2 | inactive: 1.17 | inactive: 1.09
B5 | inactive: 0.73 | inactive: 0.82 | inactive: 0.823 | inactive: 0.693 | inactive: 0.782 | inactive: 0.939
B6 | inactive: 0.532 | inactive: 0.563 | inactive: 0.496 | inactive: 0.395 | inactive: 0.401 | inactive: 0.567
B7 | inactive: 2.25 | inactive: 2.35 | inactive: 2.72 | inactive: 2.03 | inactive: 2.3 | inactive: 2.12
B8 | inactive: 0.274 | inactive: 0.236 | inactive: 0.385 | inactive: 0.241 | inactive: 0.184 | inactive: 0.262
B9 | inactive: 0.587 | inactive: 0.503 | inactive: 0.537 | inactive: 0.53 | inactive: 0.721 | inactive: 0.987
B10 | active: 3.49 | active: 3.27 | active: 3.72 | inactive: 2.52 | active: 3.99 | inactive: 2.93
B11 | inactive: 0.923 | inactive: 1.04 | inactive: 0.568 | inactive: 1.92 | inactive: 1.38 | inactive: 0.143
B12 | inactive: 0.412 | inactive: 0.438 | inactive: 0.404 | inactive: 0.404 | inactive: 0.511 | inactive: 0.538
B13 | inactive: 0.735 | inactive: 0.583 | inactive: 0.851 | inactive: 0.928 | inactive: 1.25 | inactive: 0.902
B14 | inactive: 0.908 | inactive: 0.925 | inactive: 0.759 | inactive: 0.769 | inactive: 0.869 | inactive: 0.811
B15 | active: 4.02 | active: 3.71 | active: 3.46 | active: 3.38 | active: 3.49 | active: 3.74
B16 | inactive: 0.756 | inactive: 0.835 | inactive: 0.769 | inactive: 0.745 | inactive: 0.89 | inactive: 0.736
B17 | inactive: 2.27 | inactive: 2.12 | inactive: 2.17 | inactive: 1.87 | inactive: 2.06 | inactive: 2.3
B18 | inactive: 0.177 | inactive: 0.352 | inactive: 0.232 | inactive: 0.187 | inactive: 0.281 | inactive: 0.22
B19 | active: 4.21 | active: 3.58 | active: 3.85 | active: 3.29 | active: 3.26 | active: 3.5

Binder | enrichment score (SHP2 C-SH2 domain E139D) | enrichment score [1] | enrichment score (SHP2 N-SH2 domain L43F) | enrichment score (SHP2 N-SH2 domain T42A) | enrichment score (SHP2 N-SH2 domain T52S) | enrichment score [2]
B20 | inactive: 0.511 | inactive: 0.497 | inactive: 0.45 | inactive: 0.443 | inactive: 0.528 | inactive: 0.512
B21 | inactive: 0.512 | inactive: 0.605 | inactive: 0.422 | inactive: 0.46 | inactive: 0.345 | inactive: 0.588
B22 | inactive: 1.16 | inactive: 1.13 | inactive: 1.17 | inactive: 0.873 | inactive: 1.12 | inactive: 0.985
B23 | inactive: 0.584 | inactive: 0.51 | inactive: 0.59 | inactive: 0.343 | inactive: 0.782 | inactive: 0.636
B24 | inactive: 0.723 | inactive: 0.772 | inactive: 0.714 | inactive: 0.392 | inactive: 0.47 | inactive: 0.761
B25 | inactive: 0.715 | inactive: 0.618 | inactive: 0.91 | inactive: 0.704 | inactive: 0.751 | inactive: 0.718
B26 | inactive: 1.23 | inactive: 0.953 | inactive: 1.04 | inactive: 1.37 | inactive: 0.824 | inactive: 1.02
B27 | inactive: 0.45 | inactive: 0.639 | inactive: 0.75 | inactive: 0.717 | inactive: 0.757 | inactive: 0.957
B28 | inactive: 1.47 | inactive: 1.44 | inactive: 1.99 | inactive: 1.46 | inactive: 1.67 | inactive: 1.65
B29 | inactive: 1.15 | inactive: 1.06 | inactive: 0.98 | inactive: 1.35 | inactive: 0.815 | inactive: 1.04
B30 | inactive: 1.16 | inactive: 0.76 | inactive: 0.645 | inactive: 0.515 | inactive: 0.855 | inactive: 0.818
B31 | inactive: 0.951 | inactive: 0.83 | inactive: 0.731 | inactive: 0.839 | inactive: 0.907 | inactive: 1.11
B32 | inactive: 0.706 | inactive: 0.905 | inactive: 1.01 | inactive: 0.844 | inactive: 0.929 | inactive: 0.701
B33 | inactive: 1.98 | inactive: 1.41 | inactive: 1.6 | inactive: 1.67 | inactive: 1.77 | inactive: 1.63
B34 | inactive: 2.46 | inactive: 2 | inactive: 2.43 | inactive: 3.09 | inactive: 2.47 | inactive: 2.22
B35 | inactive: 0.806 | inactive: 0.69 | inactive: 0.696 | inactive: 1.07 | inactive: 0.72 | inactive: 0.747
B36 | inactive: 0.684 | inactive: 0.921 | inactive: 1.01 | inactive: 0.714 | inactive: 0.863 | inactive: 0.827
B37 | inactive: 0.862 | inactive: 0.691 | inactive: 0.901 | inactive: 0.641 | inactive: 0.686 | inactive: 0.682
